The values that follow come from PubChem BioAssay AID1745853 (National Center for Advancing Translational Sciences (NCATS), 2022).

Assay in all cases: Primary Screen for Target Class Profiling of Small Molecule Inhibitors of Methyltransferases
Test [1] deals with Glycine N-methyltransferase (Homo sapiens) (UniProt Q14749). The settings on record: purified enzyme, MTase-Glo SAH luminescence; measured here: GNMT inhibition; at 40 µM; stronger effect = lower value. In a few lines:
(§1)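 Each enzyme was assayed with SAM and its substrate. SAH formation detected by MTase-Glo luminescence; single-point 40 uM screen[…].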

The target of test [2] is Guanidinoacetate N-methyltransferase (Homo sapiens) (UniProt Q14353). The following applies: purified enzyme, MTase-Glo SAH luminescence; measured here: GAMT inhibition; at 40 µM; stronger effect = lower value. An outline of the steps:
as §1

Test [3] has as its target Histamine N-methyltransferase (Homo sapiens) (UniProt P50135). The settings on record: purified enzyme, MTase-Glo SAH luminescence; measured here: HNMT inhibition; at 40 µM; stronger effect = lower value. In a few lines:
as §1

In test [4] the target is Nicotinamide N-methyltransferase (Homo sapiens) (UniProt P40261). The settings on record: purified enzyme, MTase-Glo SAH luminescence; measured here: NNMT inhibition; at 40 µM; stronger effect = lower value. An outline of the steps: as §1
The target in test [5] is Phenylethanolamine N-methyltransferase (Homo sapiens) (UniProt P11086). The following applies: purified enzyme, MTase-Glo SAH luminescence; measured here: PNMT inhibition; at 40 µM; stronger effect = lower value. An outline of the steps:
as §1

Molecules are shown by their SMILES. Where “and” joins values, the source holds several entries; their conditions need not be identical. Identical values can stand only once. This is one part of the list. Further columns of the screen follow, without active or inactive calls.
% is set by controls: 0 for no effect and ±100 for the full control effect.

As for `CC(C)n1c(=O)c2ccc(C(=O)NC3CCCC3)cc2n2c(=O)n(CC(=O)c3cccc(Cl)c3)nc12`, the activity change, negative = inhibition was -3.06% in test [1]; 1.4% in test [2]; 2.51% in test [3]; -1.5% in test [4]; 1.81% in test [5].
Taken in the same sequence, the figures for `Cn1cc(S(=O)(=O)NC2CC(c3cc(N4CCC(O)C4)ncn3)C2)cn1` (stereo not given) were -0.43%, 2.69%, 2.01%, -3.52% and -18.1%.
Turning to `CCCS(=O)(=O)N1CCc2nn(CC3CC3)c(=O)n2CC1`, the activity change, negative = inhibition in test [1] came out at 0.746%; in test [2], 0.79%; in test [3], 0.222%; in test [4], 4.31%; in test [5], 5.76%.
`CCOc1ccc(CN2C(=O)c3c(C(=O)OC)ncn3CC2(C)C(=O)NC2CCCC2)cc1` (stereo not given): the activity change, negative = inhibition in test [1] was -0.011%; in test [2], -0.674%; in test [3], -3.62%; in test [4] it was -0.264%; in test [5], 0.048%.
Turning to `C/C=C/CC(C)C(O)C1C(=O)NC(CC)C(=O)N(C)CC(=O)N(C)C(CC(C)C)C(=O)NC(C(C)C)C(=O)N(C)C(CC(C)C)C(=O)NC(C)C(=O)NC(C)C(=O)N(C)C(CC(C)C)C(=O)N(C)C(CC(C)C)C(=O)N(C)C(C(C)C)C(=O)N1C` (stereo not given), the activity change, negative = inhibition in test [1] was 2.74% and 10.8%; in test [2], 25.2% and 26.9% and 11.3%; in test [3], 12.5% and 14.2%; in test [4], 5.83% and 9.89% and -8.83%; in test [5], 9.58% and 4.42% and -4.59%.
Consider `CCCn1c(=O)c2ccc(C(=O)NC3CCCC3)cc2n2c(=O)n(Cc3cccc(C)c3)nc12`, for which the activity change, negative = inhibition in test [1] is 1.14%; in test [2], 0%; in test [3], 2.39%; in test [4], -1.44%; in test [5] it was 3.37%.
The matching figures for `CCc1cc2c(cc3n2CC(C)(C(=O)NC2CCC(C)CC2)N(Cc2ccccc2C)C3=O)s1` (stereo not given): 3.19%, 0.45%, 6.88%, -4.75% and 1.23%.
As for `CCN1C(=O)c2cc(C(=O)NCCCOC)nn2CC1(C)C(=O)NC1CCCC1` (stereo not given), the activity change, negative = inhibition was 4.51% in test [1]; 5.2% in test [2]; -10.8% in test [3]; 7.51% in test [4]; 4.47% in test [5].
In the case of `CCOCCCNc1nc2c(S(=O)(=O)c3c(C)cc(C)cc3C)nnn2c2ccccc12`, the activity change, negative = inhibition in test [1] is -8.77%; in test [2], 3.23%; in test [3], 2.79%; in test [4], 3.53%; in test [5] it was -3.02%.
Taken in the same sequence, the figures for `CC1CCCCC1NC(=O)C1(C)Cn2c(cc3occc32)C(=O)N1Cc1ccc(Cl)cc1` (stereo not given) were 5.08%, 2.31%, 7.02%, 3.51% and 4.25%.
The matching figures for `CN1CCOc2c(C(=O)NCc3cnn(C)c3)cc(-c3ccc([S+](C)(=O)[O-])cc3)cc21`: -8.16%, -3.66%, -4.43%, -12.7% and -10.2%.
Taken in the same sequence, the figures for `Cn1ccnc1` were -2.35%, 5.93%, 2.15%, -7.47% and 1.75%.
`COc1cccc(CN2C(=O)c3ccc(-c4ccco4)n3CC2(C)C(=O)NC2CCCC2)c1` (stereo not given): the activity change, negative = inhibition in test [1] is -10.1%; in test [2] it was -13.8%; in test [3], 2.89%; in test [4] it was -15.7%; in test [5], -8.88%.
The matching figures for `CC(C)CCn1c(=O)c2ccc(C(=O)NC(C)C)cc2n2c(=O)n(CC(=O)Nc3ccccc3F)nc12`: 8.04%, 0.321%, 2.81%, 8.59% and 7.96%.
Taken in the same sequence, the figures for `Cc1ccc(N2C(=O)c3cc4occc4n3CC2(C)C(=O)NC2CCCCCCC2)c(C)c1` (stereo not given) were 0.401%, 0%, 7.33%, 5.01% and 2.15%.
The matching figures for `CCN(CC)CCOC(=O)c1ccc(N)cc1`: 9.74%, 12.5%, 12.4%, -3.45% and 0.318%.
